# Experimental data reported in PMC4336329 (PLoS ONE, 2015).
# The whole screen tested about 310,000 compounds, of which about 2,200 (0.71%) showed an effect of 50% or more. The effect is printed as a negative number. This is one part of the list.
# Molecular target: human ether-à-go-go-related gene (hERG) potassium channel (human, UniProt Q12809)
# Assay: primary screen, population patch clamp on CHO cells stably expressing hERG
# Chain of human ether-à-go-go-related gene (hERG) potassium channel (Q12809 whole entry, looked up): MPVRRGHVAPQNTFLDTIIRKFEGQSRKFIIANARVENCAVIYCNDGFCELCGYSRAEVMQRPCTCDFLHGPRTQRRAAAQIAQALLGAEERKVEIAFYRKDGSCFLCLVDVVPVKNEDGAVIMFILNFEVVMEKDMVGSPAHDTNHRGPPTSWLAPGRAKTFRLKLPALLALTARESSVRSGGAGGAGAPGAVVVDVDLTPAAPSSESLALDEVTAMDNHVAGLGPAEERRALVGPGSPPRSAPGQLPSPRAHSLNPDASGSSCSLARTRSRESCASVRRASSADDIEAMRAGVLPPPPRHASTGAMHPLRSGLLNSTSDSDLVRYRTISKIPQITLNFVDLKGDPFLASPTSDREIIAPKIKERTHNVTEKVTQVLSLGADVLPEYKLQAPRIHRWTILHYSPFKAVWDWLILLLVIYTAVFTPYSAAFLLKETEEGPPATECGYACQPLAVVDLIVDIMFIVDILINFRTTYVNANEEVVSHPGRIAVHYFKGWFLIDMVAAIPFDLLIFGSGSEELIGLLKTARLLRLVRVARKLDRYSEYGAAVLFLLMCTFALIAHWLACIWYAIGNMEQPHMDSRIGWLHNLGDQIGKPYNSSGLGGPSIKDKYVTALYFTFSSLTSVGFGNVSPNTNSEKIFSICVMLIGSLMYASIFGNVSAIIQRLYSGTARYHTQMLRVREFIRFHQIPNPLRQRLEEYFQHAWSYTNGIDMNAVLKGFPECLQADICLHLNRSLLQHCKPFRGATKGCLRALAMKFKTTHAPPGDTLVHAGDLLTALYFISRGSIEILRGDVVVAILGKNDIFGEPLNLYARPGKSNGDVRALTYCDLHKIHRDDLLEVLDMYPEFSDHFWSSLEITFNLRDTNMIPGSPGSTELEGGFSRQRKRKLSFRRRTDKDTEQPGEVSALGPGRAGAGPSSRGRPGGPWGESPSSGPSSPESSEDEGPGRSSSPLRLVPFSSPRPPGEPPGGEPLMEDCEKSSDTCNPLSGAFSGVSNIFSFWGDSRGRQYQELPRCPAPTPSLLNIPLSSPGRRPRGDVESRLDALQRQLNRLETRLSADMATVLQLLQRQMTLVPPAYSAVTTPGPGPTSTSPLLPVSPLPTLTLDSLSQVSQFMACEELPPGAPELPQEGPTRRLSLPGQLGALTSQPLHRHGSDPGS
row,Structure (SMILES),"hERG current change (%, negative = inhibition) at 1uM [%]"
1,CC(=O)Nc1ccc2nc(NC(=O)COc3ccc([N+](=O)[O-])cc3)sc2c1,2.89
2,O=C(Cn1nnc2ccccc21)OCc1ccccc1,10.3
3,COc1ccc(OC)c(C(=O)NC(CC(N)=O)c2ccc(NCC3CC3)c([N+](=O)[O-])c2)c1 (stereo not drawn),-0.903
4,Cc1cccc(OCC(=O)Nc2ccccc2N2CCCC2)c1C,4.72
5,Cc1ccc(NS(=O)(=O)c2cn(C)cn2)cc1,14.3
6,Cc1cccc(C(=O)Nc2ncc(CN3CCOCC3)s2)c1,12.1
7,CS(=O)(=O)Nc1cccc(C2=NN(S(C)(=O)=O)C(c3ccccc3)C2)c1 (stereo not drawn),1.36
8,Cc1[nH]c(C)c(C(=O)/C=C/c2ccc([N+](=O)[O-])cc2)c1C,7.09
9,O=C(O)CN=CC1=C(O)CC(c2ccccc2)CC1=O (stereo not drawn),17.3
10,CCN(C(=O)C1CCN(c2nc(-c3ccc(OC)cc3)no2)CC1)c1ccccc1,-5.53
11,COc1cc(C(=O)N2CCC(NC(=O)C(Cc3ccc(C)cc3)NC(C)=O)CC2)cc(OC)c1OC (stereo not drawn),12.4
12,Nc1nonc1C(=O)N/N=C/c1ccc(-c2cccc(C(=O)O)c2)o1,13
13,COc1ccc(-c2ccc3nnc(SCC(N)=O)n3n2)cc1,16.8
14,CCN(CC)CCN(C(=O)c1ccc(C(=O)c2ccccc2)cc1)c1nc2c(OC)cccc2s1.Cl,-33
15,Cc1ccc(C(=O)NC(=S)N(C)C2CCCCC2)cc1Br,8.35
16,O=C(CN1C(=O)CCS(=O)(=O)c2ccccc21)NCc1ccccc1,4.2
17,CC/C(=N\NC(=O)c1nnn(-c2nonc2N)c1-c1cccc(OC)c1)c1ccc(C)cc1,19.3
18,CCOC(=O)[C@@H]1[C@H]2COc3ccc(Br)cc3[C@@H]2N2C(=O)N(c3cccc(F)c3)C(=O)[C@]12C,8.87
19,CCN(CC)CCn1c2c(c(SCC(=O)Nc3cccc4ccccc34)nc1=O)CCCC2,-14.2
20,Nc1nccnc1C(=O)OCC(=O)NCCc1ccc(Cl)cc1,0.206
21,O=C(NCCCNC(=O)c1ccccc1F)c1ccco1,13.5
22,COC(=O)c1c(O)c2ccccc2[nH]c1=O,-9.26

row,Structure (SMILES),"hERG current change (%, negative = inhibition) at 1uM [%]"
1,O=C(COc1ccc(Cl)cc1Cl)Nc1ccccc1NS(=O)(=O)c1cccs1,13.4
2,Cc1c(-c2ccccc2)sc(Br)c1C(=O)N1CCOCC1,0.902
3,CCOc1ccc(C2C(C(=O)c3ccc(C)o3)=C(O)C(=O)N2c2cc(C)on2)cc1OC (stereo not drawn),11.4
4,Cc1cc(C)cc(C(=O)NCC(=O)OCC(=O)c2cc(C)n(CC(F)(F)F)c2C)c1,-23.1
5,COc1ccc(C2CCCN2C(=S)Nc2cccc(C)c2C)cc1OC (stereo not drawn),10.4
6,CC(C)N(C)CCOC(=O)c1ccccc1Br.Cl,-0.153
7,Cc1cc(C)cc(C(=O)Nc2nc3ccccc3[nH]2)c1,16
8,CC1CCN(c2ccc(C(=O)OCC(=O)NCCN3C(=O)CSC3=O)cc2[N+](=O)[O-])CC1,3.11
9,CCC(c1nnc(SCC(=O)N2CC(=O)Nc3ccccc32)n1Cc1ccccc1)N(C)C (stereo not drawn),-2.89
10,Cc1ccc(N2NC(=O)/C(=C\c3cc4c(cc3[N+](=O)[O-])OCO4)C2=O)cc1C,0.881
11,O=[N+]([O-])c1cc2oc3c(c2c(C=NCc2ccccc2)c1O)CCCC3,14.4
12,CCCCNC(=O)N1CCN(Cc2ccc(F)cc2)CC1,9.29
13,COc1ccc(CC(=O)Nc2nc(-c3ccc(OC)c(OC)c3)cs2)cc1OC,13.7
14,CC1CN(S(=O)(=O)c2cccs2)CC(C)O1 (stereo not drawn),0.555
15,COc1ccc(S(=O)(=O)Nc2ccc(Nc3ccccc3)cc2)cc1,9.59
16,O=C(NCCc1c[nH]c2ccccc12)C(=O)NCC1OCCCN1S(=O)(=O)c1ccccc1 (stereo not drawn),6.83
17,CC(C)(C)n1nc(Cc2cccc3ccccc23)c2c(N)ncnc21,15.8
18,Cc1cc(C)c2oc(=O)cc(CN3CCC(C)CC3)c2c1,11.5
19,O=C(O)c1ccc2c(c1)C(=O)N(CCc1ccccc1)C2=O,14.3
20,CN(C)c1cc[n+](CC(=O)Nc2ccc(OC(F)F)cc2)cc1.[Cl-],10.3
21,O=C(NC1CCCC1)c1ccc(Br)s1,-5.43
22,CCOC(=O)CSc1nc2cc(OC)ccc2cc1C#N,14.3

row,Structure (SMILES),"hERG current change (%, negative = inhibition) at 1uM [%]"
1,Cc1ccccc1N1CCN(Cc2ccc([N+](=O)[O-])o2)CC1,12
2,CCOC(=O)/C(=N\Nc1ccc(OC)cc1)c1csc(Nc2ccccc2)n1,10.2
3,CSc1nc2sc3c(c2c(=O)n1C)CCCC3,6.11
4,CC1(C)Cc2c(sc(NC(=O)C3CC(Cl)=CCC3C(=O)O)c2C#N)CO1 (stereo not drawn),14.3
5,COc1ccc(NC(=O)C2CCC(CNS(=O)(=O)c3cccs3)CC2)cc1 (stereo not drawn),14.2
6,O=C(NCCCOc1cccc(CN2CCCCC2)c1)c1ccc(Cl)c(Cl)c1.O=C(O)C(=O)O,-1
7,Cc1cc(NC(=O)C(C)SCC(=O)N(C)CC(=O)Nc2ccccc2Br)no1 (stereo not drawn),14.6
8,CC(=O)Nc1ccc(NC(=O)C(Cc2ccccc2)NC(=O)C2CCCCC2)cc1 (stereo not drawn),10.1
9,CN(Cc1cnccn1)Cc1c(C(=O)N2CCc3ccccc3C2)nc2ccc(Cl)cn12,-1.17
10,COc1ccccc1CCNC(=O)CN1C(=O)NC2(CCCC2)C1=O,-22.4
11,C=CCOc1ccc(CN(C)C(=O)C2CCCO2)cc1 (stereo not drawn),10.8
12,CC(C)(C)n1cnc2cc(NC(=O)c3ccc(Cl)cc3)ccc21,-9.1
13,CCOc1ccc(/C=N/Nc2cc(=O)n(C)c(=O)n2C)cc1,14.2
14,CCC(NC(=O)c1ccccc1NC(=O)c1ccco1)C(=O)O (stereo not drawn),13
15,Cc1csc(CNc2ncnc3ccc(-c4ccoc4)cc23)c1,13.8
16,CCOC(=O)C1(Cc2ccccc2)NC(c2ccccc2F)C2C(=O)N(CC)C(=O)C21 (stereo not drawn),7.22
17,COc1ccc(N2CCN(C(=O)C3CCN(S(=O)(=O)c4ccc(C)cc4)CC3)CC2)cc1,3.69
18,O=C(NCC1CCCO1)c1cc(S(=O)(=O)Nc2ccc(Br)cc2)ccc1Cl (stereo not drawn),19
19,CCn1c(/C=C/c2ccccc2Cl)nc2ccccc2c1=O,14.5
20,CN(C)CCN(C(=O)C1CCN(S(=O)(=O)c2cccs2)CC1)c1nc2ccccc2s1.Cl,15.7
21,CC(C)C(=O)Nc1cccc(C(=O)Nc2nnc(C(C)C)s2)c1,14
22,Nc1ccc2c(c1)-c1ccccc1S(=O)(=O)N2,3.37

row,Structure (SMILES),"hERG current change (%, negative = inhibition) at 1uM [%]"
1,CCC(=O)NC(=S)Nc1ccc(NC(=S)NC(=O)c2ccc(C)cc2)cc1,15.6
2,COc1ccccc1/C=C1\SC(=S)N(CCC(=O)NCCc2ccc(O)cc2)C1=O,15.9
3,Cc1ccc(/C=N/N2C(=O)c3ccccc3NC2c2ccc(C)cc2)cc1 (stereo not drawn),13.4
4,O=C(CCNC(=O)c1ccco1)Nc1ccc(SC(F)F)cc1,-15.9
5,CC(Sc1ccccc1)C(=O)NNC(=O)c1ccncc1 (stereo not drawn),10.9
6,CCN1CCN(C(=O)c2ccc(Cn3c(=O)[nH]c4cc(OC)c(OC)cc4c3=O)cc2)CC1,7.05
7,COc1cc2c(cc1OC)CN(C(=O)c1ccc(Br)o1)CC2,3.62
8,O=C(C1CCC(CNc2c(N3CCCCC3)c(=O)c2=O)CC1)N1CCN(C2CCCCC2)CC1 (stereo not drawn),10.7
9,CCOc1cc(/C=N\Nc2ncc(F)c(N3CCOCC3)n2)ccc1Oc1nc(Cl)ncc1F,1.85
10,CCOC(=O)c1ccc(NC(=S)NCCCn2ccnc2)cc1,10.6
11,COc1cc(C(=O)OCCCc2cc3ccccc3c(=O)o2)cc(OC)c1OC,6.26
12,Cc1ccc(CNC(=O)CN2CCN(Cc3ccc(C)cc3)C2=O)cc1,-4.83
13,O=C(NCCc1ccc(Cl)cc1)C1CCN(C(=O)c2sccc2-n2cccc2)CC1,-1.16
14,Cc1ccc(NC(=O)COC(=O)Cc2cccs2)cc1S(=O)(=O)N1CCOCC1,4.46
15,CCn1c(CNc2ccc(F)cc2)nnc1SCC(=O)Nc1ccccc1OC,-4.63
16,COc1ccc(CC(=O)n2nc(-c3ccccc3)nc2NCc2ccco2)cc1,6.29
17,Cc1cc2ccc(C)c(C)c2nc1SCC#N,4.84
18,O=C(NCc1ccccn1)c1nnc(Cc2ccc(Cl)cc2)o1,7.66
19,CC(=O)c1c(C)[nH]c(C(=O)NCCC2=CCCCC2)c1C,7.29
20,COCCCNC(=O)/C(C#N)=C/c1c(N2CCN(c3ccccc3)CC2)nc2c(C)cccn2c1=O,1.57
21,Cc1cc(=O)oc2cc(OCC(=O)N3CCC(C(=O)O)(c4ccccc4)CC3)ccc12,8.62
